# Where a name gives a salt, the structure may show the parent alone. This is one part of the list.
# Test system: Schistosoma mansoni schistosomula
# Assay: phenotypic hit in primary schistosomula screen (any phenotype vs DMSO control) (binary (1 = hit, 0 = no phenotype)); higher = active (phenotype induced)
# Details: 1 µM; time (d): 7
row,Compound,phenotypic hit
1,"CC(C)CCCCCOC(=O)COc1cc(Cl)c(Cl)cc1Cl [2,4,5-trichlorophenoxyacetic acid, isooctyl ester]",inactive: 0
2,CCOC(=O)[C@H](CCc1ccccc1)N[C@@H](C)C(=O)N1Cc2ccccc2C[C@H]1C(=O)O [quinapril hydrochloride],inactive: 0
3,CC(CCc1ccccc1)NCC(O)c1ccc(O)c(C(N)=O)c1 (stereo unspecified) [labetalol hydrochloride],inactive: 0
4,CC(C)CCC[C@@H](C)C1CC[C@H]2[C@@H]3CCC4CC(=O)CC[C@]4(C)[C@H]3CC[C@]12C (stereo partly specified) [cholestanone],inactive: 0
5,O=C(CCc1ccc(O)cc1)c1c(O)cc(O)cc1O [phloretin],inactive: 0
6,CC[C@H](C)[C@H](N)C1=N[C@H](C(=O)N[C@@H](CC(C)C)C(=O)N[C@H](CCC(=O)O)C(=O)N[C@H](C(=O)N[C@H]2CCCCNC(=O)[C@H](CC(N)=O)NC(=O)[C@@H](CC(=O)O)NC(=O)[C@H](Cc3cnc[nH]3)NC(=O)[C@@H](Cc3ccccc3)NC(=O)[C@H]([C@@H](C)CC)NC(=O)[C@@H](CCCN)NC2=O)[C@@H](C)CC)CS1 [bacitracin],inactive: 0
7,COc1ccc(OC)c(C(O)CNC(=O)CN)c1 (stereo unspecified) [midodrine hydrochloride],inactive: 0
8,CN1CCN(CCCN2c3ccccc3Sc3ccc(C(F)(F)F)cc32)CC1 [Trifluoperazine dihydrochloride],inactive: 0
9,C=CC(C)(O)CCC1C(=C)CC(OC(C)=O)C2C(C)(C)CCCC12C (stereo unspecified) [larixol acetate],inactive: 0
10,CNC[C@H](O)c1ccc(O)c(O)c1 [adrenaline bitartrate],inactive: 0
11,"COC(=O)C[C@H]1C(C)(C)C2(O)OC34CC2C(=O)[C@]1(C)C3CC[C@]1(C)C4=CC(=O)O[C@H]1c1ccoc1 (stereo partly drawn) [8beta-hydroxycarapin, 3,8-hemiacetal]",inactive: 0
12,Oc1cc(O)c2c(c1)O[C@H](c1cc(O)c(O)c(O)c1)[C@H](O)C2 [epigallocatechin],inactive: 0
13,O=C1c2ccc(O)c(O)c2C(=O)c2c(O)ccc(O)c21 [quinalizarin],inactive: 0
14,CN(C)CCOC(C)(c1ccccc1)c1ccccn1 (stereo unspecified) [doxylamine succinate],inactive: 0
15,"COc1ccc(-c2cc(=O)c3cc(OC)ccc3o2)cc1 [6,4'-dimethoxyflavone]",inactive: 0
16,C[C@H]1[C@H](C)CC[C@]2(CO)CC[C@]3(C)C(=CC[C@@H]4[C@@]5(C)CC[C@H](O)C(C)(C)[C@@H]5CC[C@]43C)[C@H]12 [uvaol],inactive: 0

# From the supplement of paper PMC2702839
